# According to the RNAGym collection of RNA variant scans (doi:10.1093/nar/gkz1192):
# Read counts are not given, so values of variants with three or more changes are uncertain.
# B1: CPEB3 Ribozyme (parent)
# chain: UAACAGGGGGCCACAGCAGAAGCGUUCACGUCGCAGCCCCUGUCAGAUUCUGGUGAAUCUGCGAAUUCUGCUGUAUAUCUC
# Variants of: B1
# Test: self-cleavage, relative activity (ratio to wild type); higher = more cleavage; in vitro, sequencing
# Summary of the method: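 For each CPEB3 ribozyme variant, relative activity is its cleaved/total read fraction divided by the unmutated ribozyme's. Barcoded error-prone PCR libraries were transcribed by T7 RNA polymerase (5 hours, 37°C) and held in DNase I for 15 min before an EDTA stop, with cleavage occurring throughout. Template-switching reverse transcription and Illumina sequencing were used to read the RNAs. A 5-read minimum applied, and results are the mean of three batches.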
row,Variant,self-cleavage
1,U1C A20G G30A U41A U58C U78C,0.12
2,U1C A15G U41A U69C,0.37
3,U1C A20G U26C A56G,0.1
4,U1C U31C U54C U78A,0.77
5,U1C A20G C32U U54A U72A,0.05
6,U1C G8U U54C A56G A57G U60C U78C,0.04
7,U1C C37A A64U,0.17
8,U1C C14U A18G G24A U26A A28G A35U,0.05
9,U1C G10U G36C U51C A65G U78C,0.05
10,U1C A13G A15G A45G U60C A65U,0.32
11,U1C A45G U72C,0.77
12,U1C U26A G36U A45G U49A U51C,0.05
13,U1C A21G U26C,0.6
14,U1C A13G A45G C59A A65G U67A,0.23
15,U1C G30U A35G U41A A45G U48C U66C,0.06
16,U1C A21U U31A A47G U72A,0
17,U1C G9U G33U C39U,0.04
18,U1C U25C U26A U49C,0.28
19,U1C A15U A18C U26A U51C A64G,0.04
20,U1C A18G C68U,0.57
21,U1C C23A A45U,0.08
22,U1C G7A C11G A28G G52A U58A,0.1
23,U1C G9A C38U A65U U69A,0.1
24,U1C C14U A18G C40G U69C,0.11

row,Variant,self-cleavage
1,U1C G52A U60C C62U U67G U76C,0.1
2,U1C A18U U43C U60G U69A,0.18
3,U1C A21G U43C U51G G52A A56G U69G,0.02
4,U1C C12G U60C A75G,0.08
5,U1C A21U A28G U31C G33A A65G U69A,0.12
6,U1C U26A C40U,0.18
7,U1C U25G C27U U41C A75U U80C,0.1
8,U1C A13G U60A,0.21
9,U1C A18U U48C U54C,0.32
10,U1C U41C U69C,0.73
11,U1C A13U A20G C68G U74A,0.18
12,U1C A15G U26C A56G U67C G70A U78A,0.09
13,U1C A21G G46U U49C U60A,0.24
14,U1C U31C A64U,0.21
15,U1C C12U G24C A28G,0.18
16,U1C G8C A15G U41A U67C A75G U78G,0.04
17,U1C A13U U66C C81A,0.53
18,U1C A45U U69A U72C U78C,0.14
19,U1C A20C A21G U41C U66G U69C,0.07
20,U1C C17U C34U U60A,0.15
21,U1C U26C G33A U41A U48C,0.06
22,U1C A13G A56G,0.61
23,U1C U31C C44A U54C A64G,0.25
24,U1C A21G G33U,0.25

row,Variant,self-cleavage
1,U1C U25C U41A U51C U58C,0.18
2,U1C G55C A56G U60A U69C U76A C81U,0.07
3,U1C A47G U58C U60C,0.51
4,U1C U43A A57G,1.18
5,U1C U25A U80A,0.35
6,U1C G7U U25C U43C A57U U80C,0.03
7,U1C A13U A15C U25C U49C A56U U66C,0.06
8,U1C G9A C14U A56G,0.33
9,U1C U48C G55U U60C C79U,0.09
10,U1C U31C G33A C40G U49C U51C U74C,0.06
11,U1C A18C U43C U72G G73C,0.07
12,U1C U41A A45G U54C,0.17
13,U1C C34G A47G G63U,0.05
14,U1C A47G U58C G70C,0.15
15,U1C A20G U72A,0.27
16,U1C U41C U51C U54C U76C,1.02
17,U1C C11A A15U U41C,0.21
18,U1C U26C A65U,0.1
19,U1C C12U A13G U25C A65G U66C,0.05
20,U1C A57C A65G U74G,0.07
21,U1C A13U U25C U60C G73A,0.41
22,U1C A20U U69A,0.18
23,U1C C23U C50G A64C,0.11
24,U1C G42A U72A,0.28

row,Variant,self-cleavage
1,U1C A20U A64G A65G,0.23
2,U1C G36A U80C,0.25
3,U1C A15U U49C U58C,0.08
4,U1C G30A A57G A77G,0.11
5,U1C A13G U78A,0.93
6,U1C A28G U41C U58A,0.21
7,U1C C11G C12G A35G A75G,0.34
8,U1C G8U A13U U51G,0.32
9,U1C G8A U31A U48C,0.04
10,U1C U41C U72C,1.2
11,U1C G7U A21U U54A,0.23
12,U1C U25C A77U U78C,0.36
13,U1C U26A U41A A56G U66C,0.28
14,U1C A20U C79G,0.38
15,U1C A18G A56U,0.31
16,U1C A35G U54C U67A U69C,0.52
17,U1C A28G A35G A65G U72C A75G U76A,0.25
18,U1C A13G G16A A35C U41C A56U,0.04
19,U1C U26C U69A U78A,0.07
20,U1C A15G A18G U54A C79A,0.79
21,U1C G9U A15G G24A U41A,0.11
22,U1C G36A U58C U80A,0.44
23,U1C U31C U54A U60C U74C,0.68
24,U1C U25C U26C A35G A65G A75G,0.93

row,Variant,self-cleavage
1,U1C A20G C29U U80C,0.38
2,U1C A21G U25C U60A U78A,0.03
3,U1C A15G A64G A77U,0.8
4,U1C U26C A47G U72A U80A,0.11
5,U1C A18G A21U U60G U69C,0.07
6,U1C A47G U49C,0.19
7,U1C A15G U41C A64G,0.45
8,U1C G42A U54A,0.29
9,U1C A15G A18C U43C A65G,0.3
10,U1C A35U U58C U67C U80C,0.07
11,U1C A13G A18G U26C U41C A65G,0.09
12,U1C A15G A21G U60C A75G,0.2
13,U1C A20C A56U A57G,0.09
14,U1C G6A U54G U60C U69A U80C,0.15
15,U1C A21G A28G C79A U80A,0.73
16,U1C U31C U66A U72C,0.08
17,U1C A13G U41A,0.31
18,U1C C34U U66A U67C,0.17
19,U1C U43C U51A U54G C59A,0.16
20,U1C C50A U60A G73A U74G U76C,0.59
21,U1C A13G A45G U54G A64G,0.08
22,U1C G16C U31A,0.28
23,U1C G6A A21G A28C U51A A64G,0.3
24,U1C U25C C32A U41C A57G U69C,0.05

row,Variant,self-cleavage
1,U1C U31C A35G A45G U58C U72A,0.25
2,U1C U26C U54C U67C G70A,0.07
3,U1C A21G A35G C62A A64G U78A,0.2
4,U1C C11U A15G A65G U74A,0.24
5,U1C C4A C40U U80A,0.71
6,U1C U31C A45G,0.45
7,U1C A20U U41C U51A U69A,0.23
8,U1C A28G A35U U67C,0.05
9,U1C U25C A35G U41A U54A U69C,0.27
10,U1C A20G A47G U51C U66C,0.46
11,U1C G9A C39G U54A U69A A75U,0.03
12,U1C U43C A45G,0.61
13,U1C A15G G33U,0.22
14,U1C C40U U66A,0.17
15,U1C U25C A64U U74G,0.15
16,U1C G9A A35C U58C G73U U74C,0.05
17,U1C A28C U31C U72A U78G,0.12
18,U1C C27U A57G,0.24
19,U1C G9C U26A U49A A64U,0.04
20,U1C A15U A28U A56U A57G U58C U69C,0.07
21,U1C G16A A20G A21G U43A,0.1
22,U1C G24A A35U U41C U66A,0.07
23,U1C A18U A20U G53U U78C,0.05
24,U1C G7A A15U U26C U54C U66A,0.04

row,Variant,self-cleavage
1,U1C A18G A65G U69A C81A,0.25
2,U1C A13G U43C A47U,0.53
3,U1C A28G U48C,0.1
4,U1C A13G A18G A64U,0.08
5,U1C A18C G36A A75U U80C,0.06
6,U1C A35U C39A A45G A75U U78C,0.55
7,U1C C29U U51A A56U U78A,0.13
8,U1C U26C G52A U78C,0.21
9,U1C C40U U41A U48A,0.17
10,U1C C23G U43C,0.3
11,U1C U41A U69C,0.31
12,U1C G8U A13G A21G A28U,0.05
13,U1C G6A A21G U43C G61A,0.17
14,U1C A56G U72C,0.54
15,U1C A21U U60A,0.29
16,U1C A21C U48C A56U U72C,0.09
17,U1C G8A A18G A35U U49C U60C,0.2
18,U1C C23U U26A G42U U72A U80C,0.2
19,U1C A18G U72A,0.22
20,U1C G33A U54G A56U,0.15
21,U1C U43C U69A,0.32
22,U1C A20G U25A U41G U51C U69C,0.04
23,U1C A15U U74C,1.06
